Results reported in paper PMC4336329 (PLoS ONE, 2015).
About 14,000 (4.5%) of roughly 310,000 compounds showed an effect of 50% or more. Effects have a minus sign here. This is one part of the list.

These compounds were tested against human ether-à-go-go-related gene (hERG) potassium channel (human, UniProt Q12809) (assay: primary screen, population patch clamp on CHO cells stably expressing hERG).
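Further: peak tail current of the secondary pulse compared with the same well before compound.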

Chain of human ether-à-go-go-related gene (hERG) potassium channel (Q12809 whole entry, looked up): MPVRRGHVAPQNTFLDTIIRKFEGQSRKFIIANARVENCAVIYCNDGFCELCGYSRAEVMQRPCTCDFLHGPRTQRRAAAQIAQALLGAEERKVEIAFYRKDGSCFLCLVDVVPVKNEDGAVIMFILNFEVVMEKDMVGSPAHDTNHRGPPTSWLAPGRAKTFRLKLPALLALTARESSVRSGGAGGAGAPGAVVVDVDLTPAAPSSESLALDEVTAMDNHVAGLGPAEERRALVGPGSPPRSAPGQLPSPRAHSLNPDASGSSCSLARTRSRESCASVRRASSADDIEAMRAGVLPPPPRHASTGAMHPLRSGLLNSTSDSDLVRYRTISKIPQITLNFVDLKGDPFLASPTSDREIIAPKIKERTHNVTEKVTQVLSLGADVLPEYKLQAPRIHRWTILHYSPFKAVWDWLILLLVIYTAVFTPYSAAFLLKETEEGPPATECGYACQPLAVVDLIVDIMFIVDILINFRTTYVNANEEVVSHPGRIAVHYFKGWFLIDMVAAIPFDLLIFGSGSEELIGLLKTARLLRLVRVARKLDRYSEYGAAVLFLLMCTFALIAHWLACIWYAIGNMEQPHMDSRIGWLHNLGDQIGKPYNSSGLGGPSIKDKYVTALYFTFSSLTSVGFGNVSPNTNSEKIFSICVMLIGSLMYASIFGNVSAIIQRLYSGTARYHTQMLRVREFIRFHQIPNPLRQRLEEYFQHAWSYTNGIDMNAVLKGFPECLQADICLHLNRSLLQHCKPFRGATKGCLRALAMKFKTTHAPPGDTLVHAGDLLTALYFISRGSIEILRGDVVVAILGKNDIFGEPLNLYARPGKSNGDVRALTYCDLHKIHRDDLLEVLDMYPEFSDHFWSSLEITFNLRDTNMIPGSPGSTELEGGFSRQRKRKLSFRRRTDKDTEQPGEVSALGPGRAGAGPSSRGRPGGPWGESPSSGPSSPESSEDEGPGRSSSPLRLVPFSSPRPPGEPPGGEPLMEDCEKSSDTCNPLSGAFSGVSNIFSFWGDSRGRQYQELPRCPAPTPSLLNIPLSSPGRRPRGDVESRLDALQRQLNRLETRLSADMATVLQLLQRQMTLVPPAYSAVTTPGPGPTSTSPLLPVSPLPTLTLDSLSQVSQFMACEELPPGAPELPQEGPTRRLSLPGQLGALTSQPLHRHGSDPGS

SMILES	hERG current change (%, negative = inhibition) at 10uM
CCCOc1ccc(/C=C/C(=O)NC2CCCCC2)cc1OC	3.73%
CC(=O)N1CCN(C(=S)c2ccc([N+](=O)[O-])cc2)CC1	-3.4%
Cc1nc2ccccc2n1CC(O)Cn1c(C(F)(F)F)nc2ccccc21 (stereo not drawn)	7.05%
O=C(COC(=O)c1ccco1)Nc1ccc2[nH]c(=O)[nH]c2c1	0.93%
CCOC(=O)c1cc(NC(=O)c2cccnc2)cc(C(=O)OCC)c1	3.15%
Cc1nnc(NCc2cccc(Cl)c2)c2ccccc12	-47.5%
C/C(=N\Nc1ccc2nncn2n1)c1ccco1	21.1%
CCN(CC)S(=O)(=O)c1ccc(C(=O)NCC(c2ccc(OC)cc2)N2CCOCC2)cc1 (stereo not drawn)	-6.03%
Nc1cc(Cl)ccc1N1CCCCC1	11.3%
Cc1cccc(/N=C/c2c(O)[nH]c3ccccc23)n1	2.75%
Cc1cnc(NC(=O)NCC2CCCC(CNC(=O)Nc3ncc(C)s3)C2)s1 (stereo not drawn)	15.5%
Cn1c(N)c(C(=O)CSc2ccccn2)c(=O)n(C)c1=O	9.55%
COc1ccc(C(=O)N2CCN(C(=O)CC(C)C)CC2)cc1OC	3.82%
Cc1ccc(/C=N/n2c(C)nnc2C)o1	0.719%
CCOC(=O)c1c(N)n(CCCOC(=O)c2ccco2)c2nc3ccccc3nc12	-11.9%
O=C(CN1C(=O)NC2(CCCC2)C1=O)OCCOc1ccccc1Cl	-1.92%
Brc1ccsc1-c1csc(-c2ccncc2)n1	17.3%
Oc1ccc(-c2nnc(-c3ccccc3)c(-c3ccccc3)n2)cc1	10.9%
Cc1cc(Nc2nc3c(c(=O)n(C)c(=O)n3C)n2C)n(-c2ccc(Cl)cc2)n1	1.53%
CC(C)N1CCN(Cc2ccc3c(c2)Cc2ccccc2-3)CC1CCO (stereo not drawn)	-52.4%
CN1CCC(N(C)Cc2cccnc2)CC1	-5.19%
CC(=O)N1CCC(C(=O)N2CCN(S(=O)(=O)c3ccc(F)cc3)CC2)CC1	-1.33%
COc1ccc(-c2csc(NC(=O)COC(=O)Cc3ccccc3)n2)cc1OC	18.7%

SMILES	hERG current change (%, negative = inhibition) at 10uM
Cc1ccccc1N1C(=O)CC2(CCCC2)CC1=O	16.1%
COC(=O)c1cc(C#N)c(OC(C)C)nc1C	-6.52%
O=C1CC(N2CCN(Cc3ccc4c(c3)OCO4)CC2)C(=O)N1c1cccc2ccccc12 (stereo not drawn)	-4.77%
COc1ccc(NS(=O)(=O)c2ccc3c(c2)[C@H]2C=CC[C@H]2[C@@H](c2ccc(C(=O)O)cc2)N3)cc1	13.2%
Cc1ccc(NS(=O)(=O)c2ccc3[nH]c(=O)oc3c2)c(C)c1	6.1%
Cc1cc(C)n(C(=O)CNc2ccc(C)c(C)c2)n1	10.1%
O=C(N/N=C/c1ccc2c(c1)OCO2)C1COc2ccccc2O1 (stereo not drawn)	9.9%
Cn1c(C(=O)Nc2ccc3c(c2)OCCO3)cc2c(=O)n(C)c3ccccc3c21	3.66%
COc1ccc(N(C(C)C(=O)NCc2ccco2)S(C)(=O)=O)cc1 (stereo not drawn)	13.9%
CC1(C)CC(=O)c2c(n(-c3cccc4ccccc34)ccc2=O)C1	15.1%
COC(=O)C1=C(C)N(Cc2ccc(OC)c(OC)c2)C(=O)C1	10.7%
CCOC(=O)C(C(C)=O)C(c1ccc(OC)cc1)C(C(C)=O)C(=O)OCC (stereo not drawn)	-4.44%
COC(=O)c1sc(-c2ccccc2)cc1NC(=O)c1ccc(F)cc1	1.34%
CCCCCNC(=O)c1cc(S(=O)(=O)N2CCCCC2)ccc1F	-11.7%
CCOC(=O)/C(=N\Nc1ccccc1)c1csc(Nc2ccc(C)cc2)n1	9.16%
Cc1ccc(C(=O)Nc2c(-c3cccs3)nc3cc(C)ccn23)cc1	11.4%
COc1ccc2nc(-c3ccc(Cl)cc3)cc(C(=O)O)c2c1	16.4%
COc1ccc2c(CC(=O)N[C@@H](Cc3c[nH]c4ccccc34)C(=O)O)cc(=O)oc2c1	48.7%
CCCCOC(=O)c1cccc(NC(=O)CC)c1	-4.59%
Cc1cc(/C=N/O)c(C)n1-c1ccc(Br)cc1	-34.2%
C=CCN(CC(=O)O)S(=O)(=O)c1ccccc1C(F)(F)F	13.8%
CCC(C)NC(=O)Cn1nc(C(F)(F)F)c2c1CCCC2 (stereo not drawn)	7.08%
